In the RNAGym collection of RNA variant scans (doi:10.1073/pnas.2313332121):
This sample is rich in variants without activity.

B1: TPR 5TU (parent)
chain: GGAUCUUCUCGAUCUAACAAAAAAGACAAAUCUGCCACAAAGCUUGAGAGCAUCUUCGGAUGCAGAGGCGGCAGCCUUCGGUGGCGCGAUAGCGCCAACGUUCUCAACUAUGACACGCAAAACGCGUGCUCCGUUGAAUGGAGUUUAUCAUG

Variants of: B1
Assay: polymerase ribozyme fitness, log enrichment relative to wild type (log ratio); higher = more active; in vitro selection for triplet polymerase activity
Procedure, shortened: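 Each subunit of a heterodimeric triplet polymerase ribozyme was represented by a PCR-built, transcribed mutant library that underwent triplicate single-round in vitro selection with frozen incubation at −7 °C. Extended constructs were recovered by gel excision, streptavidin-bead capture and RT-PCR, and Illumina sequencing of input and output libraries kept genotypes with ≥10 input reads and ≥1 read per output. Fitness is the logarithm of genotype enrichment relative to wild-type enrichment, from inverse-variance-weighted replicate averages, with a logarithm base of 2.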

Variant	polymerase ribozyme fitness (log ratio)
GGAUCUUCUCGAUCUAACUAAAAAGACAAAUCUGCCACAAAGCUUGAGAGCAUCUUCGGAUGCAGAGGCGGCAGCCUUCGGUGGGGCGAUAGCGCCAACGUUCUCAACUAUGACACGCAAGACGCGUGCUCCGUUGAAUGGAGUUUAUCAUG [A19U C85G A121G]	-1.62
GGAUCUUCUCGAUCUAACUAAAAAGACAAAUCUGCCACAAAGCUUGAGAGCAUCUUCGGAUGCAGAGGCGGCAGCCUUCGGUGGUUCGAUAGUGCCAACGUUCUCAACUAUGACACGCAAAACGCGUGCACCGUUGAUUGGAGUUUAUCAUG [A19U C85U G86U C93U U130A A138U]	≤ -4.2
GGAUCUUCUCGAUCUAACUAAAAAGACAAAUCUGCCACAAAGCUUGAGAGCAUCUUCGGAUGCAGAGGCGGCAGCCUUCGGUGGCGGGAUAGCGCCAACGUUCUCAACUAUGACACGCAAAACGCGUGCUCCGUUGAAUGGAGUUUAUCAUG [A19U C87G]	-4.17
GGAUCUUCUCGAUCUAACUAAAAAGACAAAUCUGCCACAAAGCUUGAGAGCAUCUUCGGAUGCAGAGGCGGCAGCCUUCGGUGGCGCGAUAGGGCCAACGUUCUCAACUAUGACACGCAAAACGCGUGCUCCGUUGAAUGGAGUUUAUCAUG [A19U C93G]	≤ -4.2
GGAUCUUCUCGAUCUAACUAAAAAGACAAAUCUGCCACAAAGCUUGAGAGCAUCUUCGGAUGCAGAGGCGGCAGCCUUCGGUGGCGCGAUAGCGCCAACGUUCUGAACUAUGACACGCAAAACGCGUGCUCCGUUGACUGGAGUGUAUCAUG [A19U C105G A138C U145G]	≤ -4.2
GGAUCUUCUCGAUCUAACUAAAAAGACAAAUCUGCCACAAAGCUUGAGAGCAUCUUCGGAUGCAGAGGCGGCAGCCUUCGGUGGCGCGAUAGCGCCAACGUUCUCAACUAUGACACGCAAAACGCGUGCUACGUUGAAUGGAGUUUAUCAUG [A19U C131A]	-1.75
GGAUCUUCUCGAUCUAACUAAAAAAAGAAAUCUGCCACAAAGCUUGAGAGCAUCUUCGGAUGCAGAGGCGGCAGCCUUCGGUGGCGCGAUAGUGCCAACGUUCUCAAUUAUGAAACGCAAAACGCGUGCUCCGUUGAAUGGAGUUUAUCGUG [A19U G25A C27G C93U C108U C114A A150G]	≤ -4.2
GGAUCUUCUCGAUCUAACUAAAAAUACAAAUCUGCCACAAAGCUUGAGAGCAUCUUCGGGUGCUUAGGCGGCAGCCUUCGAUGGUGCGAUAGCGCCAACGUUCUCAACUAUGACACGCAAAACGCGUGCUCCGUUGAAUGGAGUUUAGCAUG [A19U G25U A60G A64U G65U G81A C85U U148G]	≤ -4.2
GGAUCUUCUCGAUCUAACUAAAAAUACAAAUCUGACACAAAGCUUGAGAGCAUCUUCGGAUGCAUAGGCGGCAGCCUUCGGUGGCGCGAUUGCGCCAACGUUCUCAACUAUGACACGCAGAACGCGUGCUCCGUUGAAUAGUGUUUAUCAUG [A19U G25U C35A G65U A91U A120G G140A A142U]	-4.19
GGAUCUUCUCGAUCUAACUAAAAAGACAAAUCUACCACAAAGCUUGAGAGCAUCUUCGGCUGCAGAGGCGGCAGCCUUCGGUAGCGCGAUAGCGCGAACGCUCUCAACUAUGACACGCAAAACGCGUGCUCCGUUGAAUGGAGUUUAUCAUG [A19U G34A A60C G83A C96G U101C]	≤ -4.2
GGAUCUUCUCGAUCUAACUAAAAAGACAAAUCUUCCACAAAGCUUGAGAGUACCUUCGGAUGCAGAGGCGGCAGCCUUCGAUGGCUCGAUAACGCUAGCGUUCUCAACUAUGACACGCAAAACGCGUGCUCCGUUGAAUGGAGUUUAUCAUG [A19U G34U C51U U53C G81A G86U G92A C96U A98G]	≤ -4.2
GGAUCUUCUCGAUCUAACUAAAAAGACAAAUCUGCCACAAAGCUUUAAAGCAUCUUCGGAUGCAGAGGCGGCAGCCUUCGGUGGCGCGAUAGUGCCAUCGUUCUCAACUAUGACACGCAAAACGCGUGCUCCGUUGAAUGGAGUUUAUCAUG [A19U G46U G48A C93U A98U]	≤ -4.2
GGAUCUUCUCGAUCUAACUAAAAAGACAAAUCUGCCACAAAGCUUGAAAGCAUCUUCGGAUGCAGAGGCGGCAGCCUUCGGUGGCGCGAUAGCGCCAACGUUCUCAACUAUGACAGGCAAAACGCGGGCUCCGUUGAAUGGAGUUUAUCAUG [A19U G48A C116G U127G]	≤ -4.2
GGAUCUUCUCGAUCUAACUAAAAAGACAAAUCUGCCACAAAGCUUGACAGCAUUAUCGGAUGCAGAGGCGGCAGCCUUCGGUGGCGCGAUAGCGCCAACGUUCUCAACUAUGAAACGCAAAACGCGUGACCCGUUGAAUGGAGUUUAUCAUG [A19U G48C C54U U55A C114A C129A U130C]	≤ -4.2
GGAUCUUCUCGAUCUAACUAAAAAGACAAAUCUGCCACAAAGCUUGAGAACAUCUUCGGAUGCAGAGGCGACAGCCUUCGGUGGCGCGGUAGCGCCAACGUUCUCAACUAUGACACGCAAAACGCGUGCUCCGUUGGAUGGAGUUUAUCAUG [A19U G50A G71A A89G A137G]	≤ -4.2
GGAUCUUCUCGAUCUAACUAAAAAGACAAAUCUGCCACAAAGCUUGAGAGCAUCUUCAGAUGCAGAGGCGGCAGCCUUCGGUGGCGCGAUAGCGCCAACGUUCUAAACUAGGACACGCAAAACGCGUGCUCCGUUGAAUGGAGUUUAUCAUG [A19U G58A C105A U111G]	≤ -4.2
GGAUCUUCUCGAUCUAACUAAAAAGACAAAUCUGCCACAAAGCUUGAGAGCAUCUUCAGAUGCAGAGGCGGCAGCCUUCGGUGGCGCGAUAGCGCCAACGUUCUGAACUAUGACACGCAAAACGCGUGCUCCGUUGAAUGGAGUUUAUCAUG [A19U G58A C105G]	-2.43
GGAUCUUCUCGAUCUAACUAAAAAGACAAAUCUGCCACAAAGCUUGAGAGCAUCUUCAGAUGCAGAGGCGGCAGCCUUCGGUGGCGCGAUAGCUCCAACGUUCUCAACUAUGACAAGCCAAACGCGUGCUCCGUUGAAUGGAGUUUAUCAUG [A19U G58A G94U C116A A119C]	-0.758
GGAUCUUCUCGAUCUAACUAAAAAGACAAAUCUGCCACAAAGCUUGAGAGCAUCUUCGAAUGCAGAGGCGGCAGCCUUCGGUUGCGCGAUAGCGACAACGUUCUCAACUAUGACACGCAAAACGCGUGCUCUGUUUAAUGAAGUUUAUCAUG [A19U G59A G83U C95A C132U G136U G141A]	≤ -4.2
